Laboratory results published in PubChem BioAssay AID1645882 (National Center for Advancing Translational Sciences (NCATS), 2021).
Hit rate of the full screen: of about 16,000 compounds, about 120 (0.75%) were called active. Not shown: some 4% with an inconclusive outcome. Calls come from the whole dose curve; as a rule, active = well fitted inhibition curve with a large enough effect; inconclusive = small, poorly fitted or top-dose-only effect; inactive = no such curve, though single readings can be large or run the other way. Some of the results follow. Where a SMILES comes first, the peptide text is derived from it.

target: Rap guanine nucleotide exchange factor 3 (Homo sapiens) (UniProt O95398); assay: Validation qHTS for antagonist of cAMP-regulated guanine nucleotide exchange factor 3 (EPAC1); settings: EPAC1 Rap1B-BODIPY-GDP exchange, fluorescence; series mostly up to 150 µM; activity change, negative = inhibition: at the top concentration; note: nearly all actives have a fitted effect of over 75% in size
Text: Assay Provider (PI): Xiaodong Cheng Ph.D.
The University of Texas Medical Branch, […], TX
In multi-cellular eukaryotic organisms, the effects of cAMP are transduced by two ubiquitously-expressed intracellular cAMP receptors, the classic protein kinase A/cAMP-dependent protein kinase (PKA/cAPK) and the more recently discovered exchange protein directly activated by cAMP/cAMP-regulated guanine nucleotide exchange factor (EPAC/cAMP-GEF). Both PKA and EPAC are ubiquitously expressed in all tissues, and an increase in intracellular cAMP levels will lead to the activation of both PKA and EPAC. Therefore, careful dissections of the individual role and relative contribution of EPAC and PKA within the overall cAMP signaling in various model systems are critical for further elucidating the mechanism of cAMP signaling. To date no EPAC-specific antagonists and agonist, as well as isoform-specific agonists have been reported, and developing EPAC-specific pharmacological probes to determine the physiological functions that EPAC play in the overall cAMP-mediated signaling remains a major challenge within the research field. Furthermore, identified regulators of EPAC may lead to new mechanism-based therapeutic strategies specifically targeting the EPAC / cAMP-signaling components as EPAC has been implicated to play important roles in major human pathological conditions such as diabetes, heart disease, and cancer.
This qHTS will be used to screen the Molecular Libraries Small Molecule Repository (MLSMR) as a concentration-titration series using the NCGC unique quantitative screening (qHTS) platform to find activators for EPAC1. In addition, this assay will also be used as a counterscreen for the EPAC2 qHTS. This fluorescent based assay is developed and validated for EPAC1 that measures exchange using EPAC effector Rap1 complex with BODIPY-GDP, a GDP analog with a tethered fluorophores. Activators are identified by monitoring the change in fluorescence signal as the exchanged free BODIPY-GDP has a reduced fluorescence compared to Rap1-bound BODIPY-GDP. Increase in signal (activation) is the desired outcome for the EPAC1 agonist while no activity in this assay is desired for the EPAC2 agonist counterscreen.
[1] de Rooij, J., Zwartkruis, F. J., Verheijen, M. H., Cool, R. H., Nijman, S. M., Wittinghofer, A., and Bos, J.L. (1998) Nature 396, 474-477.
Briefly, three uL of reagents (100 nM EPAC1, 250 nM RAP1B-BODIPY-GDP, 50 uM GDP) were dispensed into a 1536-well Greiner black solid-bottom medium binding assay plate. Controls and test compounds (23 nL) were transferred to the plate via a Kalypsys pin tool equipped with a 1536-pin array. The plates were centrifuged at 1,000 rpm for 15 seconds followed by 5 minute incubation at room temperature. The assay plates were read at 5 minute intervals for 30 minutes in the ViewLux plate reader using 480nm excitation and 540nm emission filters. The results were normalized to the […] positive control ATA and DMSO.

Sequence of UniProt O95398 (O95398 whole entry, looked up): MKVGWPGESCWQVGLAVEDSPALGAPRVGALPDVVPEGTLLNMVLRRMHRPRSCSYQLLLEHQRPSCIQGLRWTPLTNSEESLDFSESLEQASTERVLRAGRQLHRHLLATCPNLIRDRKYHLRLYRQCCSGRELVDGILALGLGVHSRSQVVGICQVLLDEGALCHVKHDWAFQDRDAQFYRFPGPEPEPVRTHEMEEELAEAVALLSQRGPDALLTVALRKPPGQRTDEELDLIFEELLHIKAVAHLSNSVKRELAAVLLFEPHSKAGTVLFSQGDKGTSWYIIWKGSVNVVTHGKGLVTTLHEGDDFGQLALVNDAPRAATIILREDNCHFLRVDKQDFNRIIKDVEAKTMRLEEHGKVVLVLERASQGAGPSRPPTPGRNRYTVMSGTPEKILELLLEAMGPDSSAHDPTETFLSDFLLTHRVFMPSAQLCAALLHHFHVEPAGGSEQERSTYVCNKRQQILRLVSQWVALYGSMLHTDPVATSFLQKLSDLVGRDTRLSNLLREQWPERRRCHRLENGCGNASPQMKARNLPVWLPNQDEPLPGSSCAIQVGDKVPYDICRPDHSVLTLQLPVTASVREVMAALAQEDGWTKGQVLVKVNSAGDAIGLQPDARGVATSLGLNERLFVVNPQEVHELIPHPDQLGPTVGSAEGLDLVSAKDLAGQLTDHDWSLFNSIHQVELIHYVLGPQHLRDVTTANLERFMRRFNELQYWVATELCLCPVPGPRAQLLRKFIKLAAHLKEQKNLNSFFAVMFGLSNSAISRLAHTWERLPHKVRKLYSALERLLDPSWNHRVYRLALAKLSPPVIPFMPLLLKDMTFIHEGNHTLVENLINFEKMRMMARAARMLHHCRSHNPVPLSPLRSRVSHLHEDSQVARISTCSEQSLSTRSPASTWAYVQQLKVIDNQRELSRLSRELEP

Activity change, negative = inhibition, inactive:
C#C[C@]1(OC(C)=O)CC[C@H]2[C@@H]3CCC4=C[C@@H](OC(C)=O)CC[C@@H]4[C@H]3CC[C@@]21C 7.07%
COC(=O)c1c(Cl)c(Cl)c(C(=O)OC)c(Cl)c1Cl
C/C=C(/C)C(=O)OC1C(OC(C)=O)[C@@]2(CO)C(O)C[C@@]3(C)C(=CCC4[C@@]5(C)CCC(OC6OC(C(=O)O)[C@@H](O[C@@H]7OC(CO)C(O)C(O)C7O)C(O)[C@H]6O[C@@H]6OC(CO)C(O)C(O)C6O)[C@](C)(CO)C5CC[C@@]43C)C2CC1(C)C (stereo partly drawn) 14.9%
COc1cccc(Nc2ncc3nc(-c4ccc(Cl)cc4)c(=O)n(C[C@H]4CCCO4)c3n2)c1 34.6%
N[C@H]1CCN(O)C1=O 6.43%
COc1ccc2[nH]cc(CCNc3ccnc(-c4ccc(N(C)C)cc4)n3)c2c1 -9.06%
O=C(c1cnccn1)N1CCC2(CC1)CCN(C(c1ccccc1)c1ccccc1)CC2 -0.511%
CC(=O)OC1CC2C(C)(C)C(=O)C=C[C@]2(C)C2CC[C@@]3(C)C(c4ccoc4)OC(=O)C4O[C@@]43[C@]12C (stereo partly drawn) 10.2%
CO[C@]1(C2=NCCN2)COc2ccccc2O1 6.71%
Cc1cc(C(C)(C)CC(C)(C)C)ccc1OCCOCC[N+](C)(C)Cc1ccccc1 2.57%
CC(=O)N[C@@H](CC(=O)O)C(=O)N[C@@H](CCC(=O)O)C(=O)O (Ac-Asp-Glu-OH) 4.52%
CCC(C)[C@H]1COCCS(=O)(=O)N1Cc1ccc(C)cc1 (stereo partly drawn) -15.6%
COCCn1c(=O)c(-c2cc(F)cc(F)c2)nc2cnc(Nc3cccc(OC)c3)nc21 41.1%
Cc1cc(NC(=O)C2=C(O)c3ccccc3S(=O)(=O)N2C)no1 15.7%
CC(C)(CO)NC(=O)c1cnn(-c2nccc(-c3ccc4c(c3)OCO4)n2)c1C1CC1 13.9%
CC(CCC(=O)O)C1CCC2C3CC[C@H]4CC(O)CC[C@@]4(C)C3CC(O)[C@]12C (stereo partly drawn) 5.59%
Cc1nc2cc(NC(=O)[C@@H]3C[C@@H](Sc4ccccn4)CN3Cc3ccccc3C)ccc2s1 -8.2%
CO[C@@]1(NC(=O)C2SC(=C(C(N)=O)C(=O)O)S2)C(=O)N2C(C(=O)O)=C(CSc3nnnn3C)CS[C@@H]21 (stereo partly drawn) 18% [at 75.8 µM]
CN(C)c1ncc2nc(-c3cc(F)cc(F)c3)c(=O)n(Cc3ccc(F)cc3)c2n1 8.11%
CN(C)CCCN1c2ccccc2CCc2ccc(Cl)cc21
COc1ncccc1C(=O)N1CCOc2ccc(C(O)C(c3ccccc3)c3ccccc3)cc2C1 (stereo not drawn) -4.68%
Cc1c(C)c2c(c(C)c1OC(=O)c1cccnc1)CC[C@@](C)(CCC[C@H](C)CCC[C@H](C)CCCC(C)C)O2 13.9%
NC(=O)C1=CN(C2OC(COP(=O)(O)OP(=O)(O)OC[C@H]3O[C@@H](n4cnc5c(N)ncnc54)[C@H](OP(=O)(O)O)[C@@H]3O)C(O)C2O)C=CC1 (stereo partly drawn) -0.935% [at 75.8 µM]
NCCCCC(NC(CCc1ccccc1)C(=O)O)C(=O)N1CCCC1C(=O)O (stereo not drawn) 7.78%
CCC(=O)O[C@H](CC(=O)O)C[N+](C)(C)C 1.34%
Cc1cc(OC(=O)c2c(C)cc(O)cc2O)cc(O)c1C(=O)O
O=C(c1ccncc1)N1CCC2(CC1)CN(c1cccc(-c3ccccc3)c1)C2 -7.45%
CCN(CC)CCOC(=O)C1(c2ccc([N+](=O)[O-])cc2)CCCC1
Cc1c(C(=O)NC2CCCCCC2)sc2ncnc(NCC3CCCO3)c12 (stereo not drawn) 5.59%
COc1ccc(CN2C[C@H](C)[C@@H](CC(=O)NCc3ccccc3)C2=O)cc1 -0.0148%
CC1(C)C2CC[C@@]1(C)C(=O)C2 9.77%
C=C1C[C@]23CC[C@H]4C(CO)(CO)C[C@@H](O)C[C@@]4(C)[C@@H]2CC[C@H]1C3 -15.5%
Nc1ccc(O)c(C(=O)O)c1 0.11%
COc1ccc(Oc2ncc3nc(-c4ccc(F)cc4)c(=O)n(C)c3n2)cc1 8.14%
O=c1[nH]c(=O)c2nc(Br)n(C3OC(CO)C(O)C3O)c2[nH]1 (stereo not drawn) 9.26%
COc1ccc(NC(=O)N2CCCC3(CCN(C(=O)c4csnn4)CC3)C2)cc1 9.95%
CNC(=O)[C@H]1O[C@@H](n2cnc3c(NCc4ccc(N)cc4)ncnc32)[C@H](O)[C@@H]1O
O=c1cnc2cnc(N3CCNCC3)nc2n1Cc1ccc(F)cc1 1.6%
COc1ccccc1-c1ccnc(-n2ncc(C(=O)N3CCN(C(C)C)CC3)c2-c2ccco2)n1 19.1%
O=C(O)[C@H](O)[C@@H](O)[C@H](O)[C@H](O)CO
c1ccc(-c2csc(-c3nc4ccccc4[nH]3)n2)cc1 -3.06%
COC(=O)N1CCC[C@@]2(CCN(C(=O)NC(C)C)C2)C1 8.07%
COc1cc2c(cc1O)CC[C@@H]1[C@@H]2CC[C@]2(C)[C@@H](O)CC[C@@H]12 5.56% [at 75.8 µM]
CC1(C)C(C=C(Cl)Cl)C1C(=O)OCc1cccc(Oc2ccccc2)c1 (stereo not drawn) -8.47%
OC(c1ccc2c(c1)CN(Cc1cccn1-c1cccnc1)CCO2)C1CCCCC1 (stereo not drawn) -4.54%
O=C(c1csnn1)N1CCC2(CC1)CN(c1ncccn1)C2 -0.349%
O=c1[nH]c(=O)n([C@@H]2O[C@H](CO)[C@@H](O)[C@H]2O)cc1F 12.5%
COc1ccccc1CN1CC[C@@]2(CCCN(S(C)(=O)=O)C2)C1 15.9%
COc1ccccc1CN1CC[C@@]2(CCCN(C(=O)c3ccncc3)C2)C1 4.58%
Cn1cccc1C(=O)N1CCC2(CC1)CN(c1ccccn1)C2 4.19%
CN(C)c1ncc2nc(-c3ccc(Cl)cc3)c(=O)n(C3CC3)c2n1 10.2%
CN(C)c1ccc(-c2nc(-n3ccnc3)c3ccccc3n2)cc1 -11.1%
CC(C)[C@@H]1[C@H]2CC[C@H](C2)[C@H]1N 13.7%
COC(=O)C1=C(C)NC(C)=C(C(=O)OC)C1c1ccccc1[N+](=O)[O-]
CCCCCCCCCCCCCCCCCCOC[C@H](COP(=O)([O-])OCC[N+](C)(C)C)OC
Cc1noc(C)c1-c1cncnc1Nc1ccccc1 10.1%
Cc1ccccc1-c1cc(N(C)Cc2ccco2)ncn1 -14.5%
NC(=O)CC[C@@H]1NC(=O)[C@H](Cc2ccccc2)NC(=O)[C@H](Cc2ccc(O)cc2)NC(=O)[C@@H](N)CSSC[C@@H](C(=O)N2CCC[C@H]2C(=O)N[C@@H](CCCN=C(N)N)C(=O)NCC(N)=O)NC(=O)[C@H](CC(N)=O)NC1=O
